Among the data in article PMC3675019 are binding values, retold here.

By UniProt entry, the sequences of proteins in these tests, tags left out.
UniProt P22415: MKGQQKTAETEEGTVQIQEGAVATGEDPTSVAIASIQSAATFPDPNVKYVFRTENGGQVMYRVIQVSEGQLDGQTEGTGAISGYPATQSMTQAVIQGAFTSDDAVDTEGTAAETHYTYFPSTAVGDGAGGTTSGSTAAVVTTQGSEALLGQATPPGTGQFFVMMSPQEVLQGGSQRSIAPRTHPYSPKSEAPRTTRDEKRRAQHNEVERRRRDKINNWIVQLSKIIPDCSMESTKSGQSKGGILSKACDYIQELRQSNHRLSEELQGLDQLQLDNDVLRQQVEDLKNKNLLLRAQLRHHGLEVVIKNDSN
UniProt Q9P0U4: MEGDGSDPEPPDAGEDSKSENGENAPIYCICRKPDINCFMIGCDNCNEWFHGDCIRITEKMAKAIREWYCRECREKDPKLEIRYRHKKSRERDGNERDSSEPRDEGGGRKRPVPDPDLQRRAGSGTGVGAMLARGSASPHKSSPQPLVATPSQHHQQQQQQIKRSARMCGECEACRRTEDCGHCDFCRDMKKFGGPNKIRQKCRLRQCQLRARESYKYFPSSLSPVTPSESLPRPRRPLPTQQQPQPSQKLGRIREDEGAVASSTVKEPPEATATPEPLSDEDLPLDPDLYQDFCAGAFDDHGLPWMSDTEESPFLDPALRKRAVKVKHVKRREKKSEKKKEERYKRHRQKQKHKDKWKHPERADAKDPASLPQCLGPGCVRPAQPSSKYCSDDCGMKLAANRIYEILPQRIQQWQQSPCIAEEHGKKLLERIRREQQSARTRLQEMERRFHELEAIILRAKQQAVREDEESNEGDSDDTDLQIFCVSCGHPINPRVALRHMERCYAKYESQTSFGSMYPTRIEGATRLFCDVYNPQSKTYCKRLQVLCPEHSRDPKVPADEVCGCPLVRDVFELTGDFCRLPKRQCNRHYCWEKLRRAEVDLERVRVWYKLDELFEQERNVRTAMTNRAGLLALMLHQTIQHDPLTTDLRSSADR
UniProt Q03164: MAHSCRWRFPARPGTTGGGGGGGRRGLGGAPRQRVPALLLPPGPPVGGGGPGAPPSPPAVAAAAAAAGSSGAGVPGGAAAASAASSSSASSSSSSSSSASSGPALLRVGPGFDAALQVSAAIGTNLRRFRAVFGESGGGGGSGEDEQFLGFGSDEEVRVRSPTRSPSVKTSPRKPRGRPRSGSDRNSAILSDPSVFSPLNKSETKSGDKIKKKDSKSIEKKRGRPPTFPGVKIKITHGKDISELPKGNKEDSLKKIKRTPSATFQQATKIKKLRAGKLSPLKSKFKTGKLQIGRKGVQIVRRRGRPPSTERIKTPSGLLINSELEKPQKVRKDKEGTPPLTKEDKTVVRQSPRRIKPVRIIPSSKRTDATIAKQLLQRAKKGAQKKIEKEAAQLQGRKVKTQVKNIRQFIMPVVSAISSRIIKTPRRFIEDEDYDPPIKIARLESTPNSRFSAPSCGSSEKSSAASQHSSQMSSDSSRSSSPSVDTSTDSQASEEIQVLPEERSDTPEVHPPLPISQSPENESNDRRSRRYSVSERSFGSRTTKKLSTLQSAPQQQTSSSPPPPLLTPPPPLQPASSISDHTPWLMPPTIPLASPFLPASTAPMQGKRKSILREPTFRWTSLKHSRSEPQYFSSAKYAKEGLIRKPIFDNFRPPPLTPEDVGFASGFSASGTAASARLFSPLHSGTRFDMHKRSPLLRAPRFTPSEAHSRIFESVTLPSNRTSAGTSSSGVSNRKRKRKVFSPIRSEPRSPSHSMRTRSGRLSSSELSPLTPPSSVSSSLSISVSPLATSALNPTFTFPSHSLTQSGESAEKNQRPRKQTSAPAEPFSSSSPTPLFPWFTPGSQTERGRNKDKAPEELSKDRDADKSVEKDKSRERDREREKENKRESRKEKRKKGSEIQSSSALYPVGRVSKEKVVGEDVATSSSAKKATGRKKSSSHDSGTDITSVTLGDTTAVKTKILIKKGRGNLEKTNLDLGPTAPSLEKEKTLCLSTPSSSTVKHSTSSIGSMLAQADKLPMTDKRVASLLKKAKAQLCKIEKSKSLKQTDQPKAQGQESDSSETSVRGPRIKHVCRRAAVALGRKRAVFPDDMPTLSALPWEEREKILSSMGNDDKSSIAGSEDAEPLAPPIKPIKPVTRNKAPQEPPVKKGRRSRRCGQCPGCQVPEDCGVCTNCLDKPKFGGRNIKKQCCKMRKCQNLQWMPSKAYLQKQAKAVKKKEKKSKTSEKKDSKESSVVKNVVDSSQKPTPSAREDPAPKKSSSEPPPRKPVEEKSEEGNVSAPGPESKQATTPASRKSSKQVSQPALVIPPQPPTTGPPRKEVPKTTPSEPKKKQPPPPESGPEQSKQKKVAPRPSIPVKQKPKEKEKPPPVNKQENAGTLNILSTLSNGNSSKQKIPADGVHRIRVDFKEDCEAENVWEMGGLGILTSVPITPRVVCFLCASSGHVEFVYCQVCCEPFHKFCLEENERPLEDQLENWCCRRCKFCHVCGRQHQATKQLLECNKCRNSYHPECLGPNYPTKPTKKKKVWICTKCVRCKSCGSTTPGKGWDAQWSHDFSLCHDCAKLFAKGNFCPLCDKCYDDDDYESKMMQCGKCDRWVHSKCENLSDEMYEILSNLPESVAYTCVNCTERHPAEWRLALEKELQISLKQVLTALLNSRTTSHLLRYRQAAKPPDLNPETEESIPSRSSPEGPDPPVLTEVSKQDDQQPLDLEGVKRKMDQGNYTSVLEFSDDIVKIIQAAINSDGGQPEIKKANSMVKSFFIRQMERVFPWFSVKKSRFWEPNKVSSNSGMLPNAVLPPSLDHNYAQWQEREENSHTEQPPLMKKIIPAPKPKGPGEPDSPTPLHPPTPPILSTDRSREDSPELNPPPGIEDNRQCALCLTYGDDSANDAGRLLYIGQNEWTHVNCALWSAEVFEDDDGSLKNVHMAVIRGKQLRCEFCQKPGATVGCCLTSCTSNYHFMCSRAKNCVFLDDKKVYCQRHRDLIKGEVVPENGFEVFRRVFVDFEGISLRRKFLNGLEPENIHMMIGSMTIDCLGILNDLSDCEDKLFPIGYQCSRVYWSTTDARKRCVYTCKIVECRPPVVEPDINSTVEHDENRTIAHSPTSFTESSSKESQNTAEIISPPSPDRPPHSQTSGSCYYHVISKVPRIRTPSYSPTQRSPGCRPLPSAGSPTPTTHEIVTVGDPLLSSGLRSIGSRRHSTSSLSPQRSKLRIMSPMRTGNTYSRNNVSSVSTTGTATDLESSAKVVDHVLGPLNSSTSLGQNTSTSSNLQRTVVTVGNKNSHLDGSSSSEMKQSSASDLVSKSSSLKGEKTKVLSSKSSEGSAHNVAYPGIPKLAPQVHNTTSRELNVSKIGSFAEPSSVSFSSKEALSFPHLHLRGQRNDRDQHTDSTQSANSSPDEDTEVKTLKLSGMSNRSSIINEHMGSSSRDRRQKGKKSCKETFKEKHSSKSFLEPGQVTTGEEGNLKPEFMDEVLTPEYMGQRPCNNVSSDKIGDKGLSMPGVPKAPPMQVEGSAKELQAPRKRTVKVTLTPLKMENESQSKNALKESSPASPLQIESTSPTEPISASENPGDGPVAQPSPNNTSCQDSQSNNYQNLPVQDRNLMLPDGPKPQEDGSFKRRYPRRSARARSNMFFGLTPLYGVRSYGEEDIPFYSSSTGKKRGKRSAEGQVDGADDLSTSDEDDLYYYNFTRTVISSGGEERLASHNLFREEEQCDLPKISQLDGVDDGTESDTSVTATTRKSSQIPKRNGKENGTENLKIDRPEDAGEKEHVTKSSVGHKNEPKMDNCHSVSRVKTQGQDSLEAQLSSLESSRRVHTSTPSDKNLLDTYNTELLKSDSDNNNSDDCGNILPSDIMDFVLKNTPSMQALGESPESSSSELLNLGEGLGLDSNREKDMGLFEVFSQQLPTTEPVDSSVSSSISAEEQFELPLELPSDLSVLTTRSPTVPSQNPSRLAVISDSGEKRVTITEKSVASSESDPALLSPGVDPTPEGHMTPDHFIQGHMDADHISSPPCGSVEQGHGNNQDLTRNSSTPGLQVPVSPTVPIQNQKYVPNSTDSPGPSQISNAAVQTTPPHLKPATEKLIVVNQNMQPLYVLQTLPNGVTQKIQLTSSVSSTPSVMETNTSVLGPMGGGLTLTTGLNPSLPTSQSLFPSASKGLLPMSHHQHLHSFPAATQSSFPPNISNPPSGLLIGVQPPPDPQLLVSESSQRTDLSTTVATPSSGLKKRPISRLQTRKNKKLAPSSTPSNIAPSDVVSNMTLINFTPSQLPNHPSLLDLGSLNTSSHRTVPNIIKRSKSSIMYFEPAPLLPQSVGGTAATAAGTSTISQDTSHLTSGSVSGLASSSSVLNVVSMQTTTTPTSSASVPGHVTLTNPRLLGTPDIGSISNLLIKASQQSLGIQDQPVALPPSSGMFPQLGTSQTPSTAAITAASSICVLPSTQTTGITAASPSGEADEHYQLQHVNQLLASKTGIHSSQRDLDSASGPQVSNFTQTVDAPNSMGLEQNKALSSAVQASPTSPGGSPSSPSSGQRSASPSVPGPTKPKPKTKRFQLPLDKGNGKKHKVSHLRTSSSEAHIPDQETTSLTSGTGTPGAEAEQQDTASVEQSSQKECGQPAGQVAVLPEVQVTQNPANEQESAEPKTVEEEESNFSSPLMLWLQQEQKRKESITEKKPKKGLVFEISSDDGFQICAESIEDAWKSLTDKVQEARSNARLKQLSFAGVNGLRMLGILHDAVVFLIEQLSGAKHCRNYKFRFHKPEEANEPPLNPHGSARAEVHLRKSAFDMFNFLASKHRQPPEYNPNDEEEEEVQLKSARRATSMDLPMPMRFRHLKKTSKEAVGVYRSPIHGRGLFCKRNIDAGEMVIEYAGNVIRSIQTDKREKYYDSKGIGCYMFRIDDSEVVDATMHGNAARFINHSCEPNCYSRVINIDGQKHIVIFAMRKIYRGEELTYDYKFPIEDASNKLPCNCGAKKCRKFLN

No constants are given. Whether binding was seen depends on the method and setting. For part of these data: In cells and extracts the contact can be indirect. Some results given as binding are weak or reduced against the parent protein; the word gives no strength.

The target of assay [1] is Flag-tagged USF1 (human) (UniProt P22415). The assay can be described thus: co-IP; extracts of K562 cells that overexpress Flag-tagged USF1; co-precipitated proteins seen by blot.
Assay [2] deals with hSET1A (human (endogenous in K562)) (UniProt O15047). The assay is described as above.
Assay [3] concerns the target GST-USF1 (human) (UniProt P22415). The assay can be described thus: pull-down; 35S-labeled ASH2L incubated with GST and GST-USF1 fusion proteins pre-absorbed to glutathione-Sepharose beads; bound ASH2L seen by fluorography; only the target purified.
Assay [4] has the same target. The experiment in a line: pull-down; GST-USF1 pre-absorbed to glutathione-sepharose beads, incubated with each single Flag-tagged component of the hSET1A complex purified from SF9 cells; PBS, 10% glycerol, 1% Triton X-100, 1 mM EDTA, 1 mM DTT, RT, 1 hour; western blot with Flag antibody; both purified. Background: A western blot detects proteins with antibodies after separation by electrophoresis.

Assay [5] has the same target. The assay can be described thus: pull-down; GST-USF1 pre-absorbed to glutathione-sepharose beads, incubated with the purified, baculovirus reconstituted hSET1A complex with ASH2L; PBS, 10% glycerol, 1% Triton X-100, 1 mM EDTA, 1 mM DTT, RT, 1 hour; western blot; both purified.

Consider CFP1 (from UniProt Q9P0U4 1-656), for which the figures for the binding result in assay [1] and in assay [2] were “no binding” and “binds”, respectively.

“35S-labeled ASH2L (from UniProt Q9UBL3 1-628)”: the binding result in assay [3] is listed as “binds”.

For “MLL1 (from UniProt Q03164 1-3969) (enzyme)”, the binding entry in assay [1] is “no binding”.

As for “Flag-tagged ASH2L (from UniProt Q9UBL3 1-628)”, the binding entry in assay [4] and in assay [5] was “binds” each time.
